# The supplement of paper PMC7826260
# This is one part of the list. Viral Rep nickase domains cut single-stranded DNA in vitro (1 h at 37 °C, 3 µM enzyme); the outer parts of the 90-letter strands are left off. The score is log2 (uncut reads / reads without enzyme); more negative means more cut, near 0 not cut, and no call is made. Reads are scaled to the total, so uncut sequences can rise above 0 when many others are cut.
# Columns and labels:
# Experiment in all cases: uncleaved DNA left, log2 of reads against the no-enzyme library (log2 ratio); higher = less cleavage (more negative = more Rep cleavage of the k-mer); sequences stand for … in CTCGTCCG…ACCGGAGA
# [1] = test system: T1, Rep nickase domain of Muscovy duck circovirus
# T1 sequence (residues 1-111 of Rep, tag left off): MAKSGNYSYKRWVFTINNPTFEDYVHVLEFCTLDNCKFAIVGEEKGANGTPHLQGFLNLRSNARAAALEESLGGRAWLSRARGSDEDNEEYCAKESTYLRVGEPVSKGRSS
# Protocol: (§1)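 A pool of 90-nt single-stranded DNAs with seven random bases just before the constant AC of the nick site (name = the seven bases) was cut by 3 µM recombinant His6-SUMO-tagged Rep nickase domain (300 nM DNA, 50 mM HEPES pH 8.0, 50 mM NaCl, 1 mM MnCl2, 1 h, 37 °C, three replicates). Uncut DNA was amplified and sequenced.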
# [2] = test system: T2, Rep nickase domain of banana bunchy top virus
# T2 sequence (residues 1-94 of Rep, tag left off): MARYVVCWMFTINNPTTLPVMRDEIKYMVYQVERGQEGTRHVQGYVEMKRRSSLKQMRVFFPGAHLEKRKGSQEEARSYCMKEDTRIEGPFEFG
# Protocol: as §1
# [3] = test system: T3, Rep nickase domain of cabbage leaf curl virus
# T3 sequence (residues 1-116 of Rep, tag left off): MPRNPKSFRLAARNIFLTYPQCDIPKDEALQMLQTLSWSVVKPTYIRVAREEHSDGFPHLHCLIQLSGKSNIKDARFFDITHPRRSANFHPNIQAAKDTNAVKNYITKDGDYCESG
# Protocol: as §1
# [4] = test system: T4, Rep nickase domain of chickpea chlorotic dwarf virus
# T4 sequence (residues 1-124 of Rep, tag left off): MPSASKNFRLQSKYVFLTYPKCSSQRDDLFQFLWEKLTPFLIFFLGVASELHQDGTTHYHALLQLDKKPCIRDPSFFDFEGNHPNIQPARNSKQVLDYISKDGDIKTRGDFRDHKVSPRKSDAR
# Protocol: as §1
# [5] = test system: T5, Rep nickase domain of faba bean necrotic yellows virus
# T5 sequence (residues 1-98 of Rep, tag left off): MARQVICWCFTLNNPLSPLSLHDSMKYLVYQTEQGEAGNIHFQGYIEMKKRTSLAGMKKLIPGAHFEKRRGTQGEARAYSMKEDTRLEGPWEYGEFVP
# Protocol: as §1
# [6] = test system: T6, Rep nickase domain of maize striate mosaic virus
# T6 sequence (residues 1-117 of Rep, tag left off): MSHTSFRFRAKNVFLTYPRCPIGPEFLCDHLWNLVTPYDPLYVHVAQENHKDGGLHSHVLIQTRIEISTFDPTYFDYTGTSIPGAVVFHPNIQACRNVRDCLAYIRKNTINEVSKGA
# Protocol: as §1
# [7] = test system: T7, Rep nickase domain of porcine circovirus 2
# T7 sequence (residues 2-116 of Rep, tag left off): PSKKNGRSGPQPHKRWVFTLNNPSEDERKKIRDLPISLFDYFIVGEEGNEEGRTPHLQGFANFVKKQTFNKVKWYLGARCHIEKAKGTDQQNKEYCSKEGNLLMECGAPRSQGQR
# Protocol: as §1
# [8] = test system: T8, Rep nickase domain of tomato golden mosaic virus
# T8 sequence (residues 1-124 of Rep, tag left off): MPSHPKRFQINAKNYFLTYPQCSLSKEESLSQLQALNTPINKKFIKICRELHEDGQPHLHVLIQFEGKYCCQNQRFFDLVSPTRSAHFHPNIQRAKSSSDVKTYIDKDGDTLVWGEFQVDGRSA
# Protocol: as §1
# [9] = test system: T9, Rep nickase domain of tomato yellow leaf curl virus
# T9 sequence (residues 1-136 of Rep, tag left off): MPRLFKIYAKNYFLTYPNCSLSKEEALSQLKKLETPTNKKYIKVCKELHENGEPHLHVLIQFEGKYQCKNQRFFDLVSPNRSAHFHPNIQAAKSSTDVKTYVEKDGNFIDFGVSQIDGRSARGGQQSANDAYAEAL
# Protocol: as §1
# [10] = test system: T10, Rep nickase domain of wheat dwarf virus
# T10 sequence (residues 1-137 of Rep, tag left off): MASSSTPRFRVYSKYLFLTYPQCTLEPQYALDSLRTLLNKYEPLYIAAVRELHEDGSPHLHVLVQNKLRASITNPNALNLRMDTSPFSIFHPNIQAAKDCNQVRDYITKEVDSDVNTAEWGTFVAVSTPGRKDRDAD
# Protocol: as §1
Sequence,uncleaved DNA left (log2) [1],uncleaved DNA left (log2) [2],uncleaved DNA left (log2) [3],uncleaved DNA left (log2) [4],uncleaved DNA left (log2) [5],uncleaved DNA left (log2) [6],uncleaved DNA left (log2) [7],uncleaved DNA left (log2) [8],uncleaved DNA left (log2) [9],uncleaved DNA left (log2) [10]
TGTATGA,0.00415,-0.0662,0.112,0.31,0.0297,-0.234,0.0522,-0.0723,-0.0706,-0.0486
CAATAGC,-0.0356,-0.026,-0.897,-1.26,-0.0921,-1.19,0.157,-0.022,0.0729,-0.078
ATAGGTG,0.0892,-0.093,-0.259,-0.118,0.107,-0.596,0.167,0.0291,0.0299,-0.0258
GGCGCTG,-0.0157,-0.0394,0.0481,0.595,0.0267,1.76,0.0902,0.019,-0.106,0.00908
GTTATTA,0.00356,0.0729,0.326,0.813,0.0682,1.9,0.147,0.191,0.174,0.1
CAGTGAT,0.0545,0.00549,0.254,1.54,-0.0201,1.81,-3.22,0.136,-0.153,0.0803
GAGACCC,0.102,0.105,0.7,1.6,-0.0252,2,0.0594,0.016,0.152,0.187
ACGGGCC,-0.0698,0.0878,-0.0324,0.248,-0.0101,0.165,0.199,0.0799,-0.0201,-0.0324
CAGAGAG,-0.0123,0.0468,-0.539,-0.436,-0.00928,-0.945,0.187,0.0369,-0.0485,-0.162
ATCTTGT,-0.0996,-0.0919,-0.472,-0.639,0.0195,-1.07,-1.12,-0.086,-0.0486,0.0276
TTTTGGC,-0.0511,-0.167,-0.253,-0.671,-0.123,-1.14,0.0802,-0.186,-0.0252,-0.218
TTGGCCA,0.149,0.191,0.271,0.0386,0.0742,0.209,0.154,0.017,0.0917,0.209
GATAGTG,0.104,-0.0186,-0.448,-0.429,0.119,-1.04,0.176,0.0461,0.129,-0.0418
GCACAGG,0.0786,0.133,0.152,0.775,0.0841,0.0435,0.139,0.12,0.0637,0.202
CAGTGGC,-0.0398,-0.116,-0.671,-0.778,0.0359,-1.12,-0.182,-0.168,-0.157,-0.253
ACCATCT,-0.0628,-0.063,-0.532,-2.32,0.0291,-1.09,-0.0229,-0.116,-0.13,-0.145
TTGGGAG,0.125,0.0243,-0.259,-0.176,0.0592,-0.652,0.104,0.0821,-0.00344,-1.82e-05
GACTCGG,-0.067,-0.0324,0.451,1.4,0.0336,1.83,0.0974,0.0872,-0.0989,0.011
TGCAGCA,0.0823,-0.0334,-0.294,-0.687,0.0061,-0.898,-0.358,-0.0434,0.0332,-0.0162
ATGCCCT,-0.0574,-0.0657,0.0996,-0.636,-0.0382,-0.124,-0.258,-0.0664,0.0211,0.106

Sequence,uncleaved DNA left (log2) [1],uncleaved DNA left (log2) [2],uncleaved DNA left (log2) [3],uncleaved DNA left (log2) [4],uncleaved DNA left (log2) [5],uncleaved DNA left (log2) [6],uncleaved DNA left (log2) [7],uncleaved DNA left (log2) [8],uncleaved DNA left (log2) [9],uncleaved DNA left (log2) [10]
TCAGTCG,-0.02,-0.0663,-0.227,0.612,0.00099,0.668,0.0324,0.0869,0.0101,-0.0637
GTCGCGT,-0.0868,-0.0271,-0.354,-0.585,-0.015,-0.452,0.0318,-0.0523,-0.0339,-0.11
CAGTGAC,-0.063,-0.00605,0.094,0.437,0.112,0.0872,-0.0017,0.0211,-0.0496,-0.0585
CAGGGAG,0.106,0.168,-0.341,-0.076,0.18,-0.605,0.211,0.0856,0.0827,0.0647
GCCACGC,-0.0436,-0.0755,-0.0798,0.0415,-0.0973,-0.534,0.136,0.0276,-0.0673,-0.0866
GATTGAT,-1.28,-1.06,-0.0873,0.181,-0.137,0.262,-1.54,0.0351,-0.0664,-0.0775
AACCCTT,0.114,0.081,0.871,0.657,0.0218,2.08,-0.141,-0.0865,0.141,0.182
GCTCCTT,0.0749,-0.000612,0.193,-0.685,0.0774,0.427,-0.0413,0.112,0.0838,0.0987
AACAGCT,-0.0113,-0.0617,-0.413,-1.36,-0.0289,-0.775,-0.328,0.0514,0.0179,0.058
ACCTGCA,-0.0996,-0.0575,-0.749,-0.783,-0.0789,-1.09,0.0549,-0.128,0.029,-0.125
AGCGTCT,-0.0248,0.0196,-0.00467,0.363,0.0537,1.45,-0.0537,0.0193,-0.119,0.0549
TTTTTCA,-0.175,-0.0135,0.192,-0.735,0.0236,0.102,-0.205,-0.0396,0.155,0.0528
GTATCGC,0.0069,-0.0919,0.0134,0.249,-0.0488,-0.233,0.124,0.00652,0.00196,0.0582
TCTAGCT,0.0228,-0.00911,-0.279,-1.32,-0.0276,-0.92,0.0464,-0.0646,-0.0124,-0.12
GGTTGGG,0.0697,-0.0653,-0.532,-0.301,0.0385,-0.327,0.135,-0.0545,0.135,-0.121
CAGGTAC,0.0641,0.158,0.142,0.395,0.0575,0.0314,0.256,0.134,0.0696,0.182
ACGGAGG,0.136,-0.0814,-0.281,-0.255,0.0608,-0.985,0.25,0.0839,0.0418,-0.12
ACCGTGC,-0.0135,-0.0229,-0.577,-0.176,-0.0433,-0.956,0.166,-0.0386,0.0294,-0.083
ATGTCGA,-0.0181,-0.186,-0.703,-0.738,-0.0317,-0.983,-0.00899,-0.229,-0.156,-0.192
GAACGTT,0.124,-0.0676,0.44,-0.583,-0.0777,1.72,-0.0808,-0.0638,-0.0175,0.0501

Sequence,uncleaved DNA left (log2) [1],uncleaved DNA left (log2) [2],uncleaved DNA left (log2) [3],uncleaved DNA left (log2) [4],uncleaved DNA left (log2) [5],uncleaved DNA left (log2) [6],uncleaved DNA left (log2) [7],uncleaved DNA left (log2) [8],uncleaved DNA left (log2) [9],uncleaved DNA left (log2) [10]
CATCATA,-0.0057,-0.108,-0.0725,-2.09,-0.0481,-0.75,-0.0554,-0.0963,-0.0859,0.0109
TTTATCT,-0.0947,0.0775,0.0838,-1.75,0.0135,-0.141,-0.637,-0.0299,0.0965,0.0548
AGCCATT,-0.0198,-0.049,0.413,-0.052,0.123,0.39,-0.307,0.0617,0.0202,0.0555
GCTGCCG,0.00656,0.0181,-0.5,-0.391,0.0131,-0.816,-0.0304,-0.00349,-0.135,-0.0883
GCCTGTC,0.0674,-0.0405,0.3,0.465,0.00409,0.121,0.0783,0.163,-0.132,-0.111
AACCCTC,-0.00576,-0.0364,0.426,0.66,-0.0489,0.479,-0.23,-0.0207,-0.0984,0.0129
TAAAGCC,0.0502,-0.0154,-1.09,-2.66,0.0416,-1.16,0.125,-0.0369,-0.0572,-0.253
AGCTACT,-0.255,0.108,0.0558,0.265,0.104,1.63,-2.63,0.185,0.0169,0.115
GCCCTAC,0.0217,0.0238,0.0327,-0.437,0.0253,0.213,0.00863,-0.0819,0.0424,0.00366
ATCCTTA,0.071,0.124,0.0751,-1.25,0.00157,-0.341,-0.133,0.0825,0.0459,-0.0539
TAGACAT,-0.0267,0.0937,0.81,1.93,-0.0465,2.17,-0.943,-0.0238,0.042,0.219
ATTTACC,-0.0582,-0.031,-0.318,-2.51,0.07,-0.701,-1.2,-0.0495,-0.0407,-0.139
CCATAGT,-2.66,-0.112,-0.753,-1.48,-0.0694,-1.28,-3.42,-0.188,-0.0263,-0.194
GTTGCTA,0.019,0.0187,0.187,0.726,0.0592,1.22,0.109,0.0178,0.0817,0.115
CACAGAT,0.109,0.00174,0.222,0.291,0.107,0.699,-0.00337,0.0204,-0.0516,-0.0131
TGTAGGT,-0.0189,-0.0963,0.278,0.99,-0.0656,1.55,-0.0806,0.0128,-0.134,-0.0284
CGCTGAC,0.144,-0.0712,0.015,0.575,0.0596,0.266,0.103,-0.0777,0.0424,0.0429
GTAACCG,-0.0493,0.00981,-0.683,-1.13,-0.0385,-0.764,-0.0313,-0.00465,-0.0604,-0.0436
GCCCTTG,0.0785,-0.0462,-0.203,-0.461,0.0158,-0.467,0.114,0.0804,0.000527,-0.0225
CCAACTT,-0.135,-0.178,-0.31,-2.42,-0.084,-0.333,-0.452,-0.171,-0.0801,-0.111
